The values below come from ChEMBL document CHEMBL1201862, “PubChem BioAssay data set” (2004).

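Briefly, cells in 96-well plates were exposed to five compound concentrations for 48 h, and endpoints were estimated by linear interpolation. Abbreviation: GI50, concentration required for 50% inhibition of growth.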 Activity calls are given as the source filed them. Rule as the data show it: active = GI50 up to about 1.1 µM and inactive = higher. Where only a bound is given, the exact number is not on record here.

The assay deals with NCI-H322M. The experiment in a line: NCI anticancer screen, dose series, 48 h.
`COc1ccc(OC)c2c(=S)c3ccccc3[nH]c12`: the GI50 is inactive: 98.6 µM. The value for `OCCN1CCN(CC/C=C2/c3ccccc3Sc3ccc(Cl)cc32)CC1` was inactive: 16.6 µM. The value for `CCCCN(c1ccccc1)c1ncnc2c1cnn2C` was inactive: 56 µM. As for `CCCCCCC(=O)OC[n+]1ccc2c(C)c3[nH]c4ccc(OC)cc4c3c(C)c2c1`, the GI50 was active: 0.193 µM. As to `N#Cc1ccc(C2NN=CC23C(=O)c2ccccc2OC3c2ccccc2)cc1` (configuration not stated), the GI50 was inactive: 73.8 µM. Take `S=C(N1CCN(c2cccc(Cl)c2)CC1)N1CCN(c2cccc(Cl)c2)CC1`: the GI50 is inactive: 54.7 µM. As to `CC1CC(=O)N2CCCNC2=C1C#N` (configuration not stated), the GI50 was inactive: > 100 µM. In the case of `N#Cc1c2ccc([N+](=O)[O-])cc2c(=O)n2c1sc1ccccc12` it was inactive: 19.8 µM; in that of `O=c1cc(/N=N\c2ccc(Cl)c(Cl)c2)[nH]c(=O)[nH]1`, inactive: 12.1 µM; in that of `Oc1ccccc1/C=N/c1ccc(-c2nc3ccccc3s2)cc1`, inactive: 33.3 µM. Consider `C=C1CCCCCCCCC/C=C/1SCCCSC`, for which the GI50 is inactive: > 100 µM. In the case of `C#CCN(N=O)C(=O)NCCCCC(NC(=O)OCc1ccccc1)C(=O)OCc1ccccc1` (configuration not stated), the GI50 is inactive: > 100 µM. In the case of `Cc1cc(NS(=O)(=O)c2ccc(NC(=O)c3cccc4c(N)c5ccccc5nc34)cc2)no1` it was inactive: 20 µM. On to `CN(C)C(=O)CO/N=C1/C(=C2/C(=O)Nc3ccccc32)Nc2ccccc21`, for which the GI50 is inactive: > 100 µM. In the case of `CSc1cnc2ccccc2c1Sc1cn(C)c2ccccc2c1=O` it was inactive: 4.31 µM.

Take `O=C(c1ccccc1)C(C(=O)c1ccccc1)c1nc2ccccc2sc1=O`: the GI50 was inactive: 11.5 µM. The value for `O=C(Cn1cc(F)c(=O)[nH]c1=O)C12CC3CC(CC(C3)C1)C2` was inactive: > 100 µM. The value for `COc1ccc2c3c1OC1C(OC)(OC)C=C[C@@]4(Br)[C@@H](C2)N(CC2CC2)CC[C@]314` (some centres not stated) was inactive: 77.6 µM; that for `CC(=O)c1c(C(F)(F)F)[n+]([O-])c2cc(Cl)c(Cl)cc2[n+]1[O-]` was inactive: 1.51 µM. In the case of `CC(=O)c1sc2n(C)c(=O)c3ccccc3[n+]2c1C` it was inactive: > 100 µM. As for `Cc1nc(=O)n2c(c1C(=O)Nc1ccc(Cl)cc1)NCCC2`, the GI50 was inactive: > 100 µM.

Take `CCOC1=CP(=O)(OCC)CC(C)=C1Cl` (configuration not stated): the GI50 is inactive: > 100 µM.

For the compound `COc1cc(C(O)(CC#N)c2cc3c(cc2Br)OCO3)cc(OC)c1OC` (configuration not stated), the GI50 is inactive: 49.8 µM. For the compound `CC(O)CNC(=O)Nc1c(C(F)(F)F)cc(-c2ccccc2)[nH]c1=O` (configuration not stated), the GI50 was inactive: > 100 µM. As for `NCCN/C(=N\c1ccccc1)Nc1ccccc1`, the GI50 was inactive: > 100 µM. The value for `CC(=O)N1NC(c2ccccc2)=NC(=O)C1c1cc(C)c(O)c(C)c1` (configuration not stated) was inactive: 27.7 µM.

Regarding `Cn1c(=O)c2c(nc(N3CCOCC3)n2CCCNCC(O)c2ccc(O)c(O)c2)n(C)c1=O` (configuration not stated), the GI50 is inactive: > 100 µM. The value for `CCc1ccc(/N=C\c2cc(OC)c(OC)c(OC)c2)cc1` was inactive: > 100 µM; that for `O=C(Sc1c(-c2ccccc2)c(=O)n(-c2ccccc2)c(=S)n1-c1ccccc1)c1ccccc1` was inactive: > 100 µM. The value for `CC(=O)N1c2ccccc2C2=NN=C(N(C)C)SC21` (configuration not stated) was inactive: 2.9 µM; that for `COc1ccc(-c2nnc(-c3c(C)n(C)n(-c4ccccc4)c3=O)o2)cc1` was inactive: > 100 µM; that for `O=C1/C(=c2\s/c(=C\c3ccccc3)c(=O)n2-c2ccccc2)SC(=S)N1c1ccccc1` was inactive: 25.5 µM. As to `O=C1C(Cl)=C(NCCCN2CCOCC2)C(=O)c2c(O)ccc(O)c21`, the GI50 was inactive: 1.9 µM.

Take `COc1ccc2c(c1)nc1n2C(N)=Nc2ccccc2S1`: the GI50 was inactive: 64 µM. The value for `O=C1CCCc2ccc([N+](=O)[O-])c(O)c21` was inactive: 93.3 µM; that for `NCCCOc1ccc([N+](=O)[O-])cc1Cl` was inactive: > 100 µM; that for `C[C@]12CCC(O)CC1=CC[C@@H]1[C@@H]2CC[C@]2(C)C(O)[C@H](n3ccnc3)C[C@@H]12` (some centres not stated) was inactive: > 100 µM. Consider `CCCCCCCCCCCCCCCCCC(=O)OCC(CN(C)CCN(C)C)OC(=O)CCCCCCCCCCCCCCCCC` (configuration not stated), for which the GI50 was inactive: > 100 µM. The value for `COC1CC(OS(=O)(=O)c2ccc(C)cc2)C(OS(=O)(=O)c2ccc(C)cc2)C(COS(=O)(=O)c2ccc(C)cc2)O1` (configuration not stated) was inactive: 15.5 µM. In the case of `CC(=O)N/C(=C\c1cccc([N+](=O)[O-])c1)c1nc2ccc3c(c2[nH]1)C(=O)c1ccccc1C3=O` it was inactive: 26.2 µM. In the case of `O=C1c2cc([N+](=O)[O-])ccc2-c2cccc(F)c21`, the GI50 was inactive: > 100 µM. On to `COc1ccc2nc3cc(Cl)ccc3c(Sc3ccc([N+](=O)[O-])cc3)c2c1`, for which the GI50 is inactive: > 10 µM. Consider `Cc1cccc(NC2=NC(=O)C(CC(=O)Nc3ccccc3Cl)S2)c1` (configuration not stated), for which the GI50 was inactive: > 100 µM.

Take `COC1=CC(=O)C2=C(C1=O)[C@H]1CC[C@]3(C)[C@@H](O)CC[C@H]3[C@@H]1CC2`: the GI50 is inactive: 16.7 µM. For `C/N=C(\N)c1ccc(NC(=N)c2ccc(C(=N)Nc3ccc(/C(N)=N/C)cc3)cc2)cc1`, the GI50 is inactive: > 100 µM. Regarding `Nc1ccc(Cn2ccc3c4c(N)nc(N)nc4ccc32)cc1`, the GI50 is active: 0.0101 µM. The value for `CC1=C(OC2OC(CO)C(O)C(O)C2O)C(=O)C[C@H]2C1=CC[C@@H]1[C@@]2(C)C(=O)C[C@]2(C)[C@@H]([C@@](C)(O)C(=O)CCC(C)(C)O)[C@H](O)C[C@@]12C` (some centres not stated) was inactive: > 100 µM; that for `O=C1C2=Cc3ccccc3OC2(O)Oc2cc(O)cc(O)c21` (configuration not stated) was inactive: > 100 µM; that for `C[N+]1(C)C/C(=C\c2ccncc2)C(=O)/C(=C/c2ccncc2)C1` was inactive: > 100 µM. `COC(=O)C1=CC2C(=O)OC1C1C(=O)NC(=O)C21` (configuration not stated): the GI50 was inactive: > 100 µM. With `CC1=NN(C(=O)c2ccc(Cl)cc2)C(=O)/C1=C/c1ccco1`, the GI50 was inactive: > 100 µM. In the case of `O=[N+]([O-])c1cc(C(F)(F)F)cc2n[se]nc12` it was inactive: 15.9 µM; in that of `O=C1c2ccccc2C(=O)c2c1ccc1c3ccccc3n(-c3ccccc3)c21`, inactive: 27.6 µM; in that of `O=C1C(NS(=O)(=O)c2ccccc2)=C(n2ccnc2)C(=O)c2ccccc21`, inactive: > 100 µM. For `CC1=C(C(=O)Nc2ccc([N+](=O)[O-])cc2)C(c2ccccc2F)C(C(=O)Nc2ccc([N+](=O)[O-])cc2)=C(C)N1`, the GI50 was inactive: 18 µM. The value for `O=C1OC(=O)C2=C1C(c1cccs1)C=C(c1cccnc1)N2c1ccncc1` (configuration not stated) was inactive: 17.3 µM; that for `O=c1c2ccccc2sc2nc(O)nn12` was inactive: > 100 µM; that for `COc1cc(CNc2nc3c(N)cc(C(F)(F)F)cc3nc2-c2ccccc2)cc(OC)c1OC` was inactive: > 10 µM. The value for `CCC(C)n1c(C)nc2c1C(=O)c1ccccc1C2=O` (configuration not stated) was inactive: 69.8 µM; that for `CC1(C)Cc2c(c3ccccc3c3nc4c(nc23)c2c(c3ccccc34)OC(C)(C)C2)O1` was inactive: > 100 µM; that for `COc1ccc2c(c1)CCc1c(-c3n[nH]c4c3CCc3cc(OC)ccc3-4)n[nH]c1-2` was inactive: 54.3 µM. In the case of `Cc1ccc(C2COc3cc(O)c(O)cc3C2)cc1` (configuration not stated) it was inactive: 57.5 µM.

As to `c1ccc(/N=C2\S/C(=N\C3CCCCC3)N(C3CCCCC3)\C2=N/c2ccccc2)cc1`, the GI50 was inactive: > 100 µM.

As for `COc1cc(C)cc(OC)c1/C=C/C(=O)O`, the GI50 is inactive: > 100 µM. The value for `O=C1c2ccccc2N2Oc3ccccc3C12c1ccccc1` (configuration not stated) was inactive: > 100 µM. In the case of `O=C1C=C(C2=CC(=O)C(=O)c3ccccc32)c2ccccc2C1=O` it was inactive: 25.9 µM; in that of `C/C=C1/C(=Cc2[nH]c(C=c3[nH]/c(=C/C4=NC(=O)C(CC)=C4C)c(C)c3CCC(=O)O)c(CCC(=O)O)c2C)NC(=O)C1C` (configuration not stated), inactive: > 50 µM; in that of `Cn1c(=O)c2c(nc3n2CCC(=O)N3CCCCl)n(C)c1=O`, inactive: > 100 µM. In the case of `Nc1ccc(Oc2ccc(C3(c4ccc(Oc5ccc(N)cc5)cc4)C4CC5C6CC7CC5C3C(C7)C6C4)cc2)cc1` it was inactive: 1.22 µM; in that of `Cc1cc(N(CCC#N)CCC#N)ccc1/C=N/NC(=O)c1cc(Cl)ccc1O`, inactive: > 100 µM; in that of `CC(=O)OCC1OC(n2c(C)c(/N=N/c3ccc(Cl)cc3)c(C)c(C#N)c2=S)C(OC(C)=O)C(OC(C)=O)C1OC(C)=O` (configuration not stated), inactive: > 100 µM.

As to `O=C(O)C1CCCN(CCc2c[nH]c3ccccc23)C1` (configuration not stated), the GI50 was inactive: > 100 µM.

On to `C=C(C)C1CC(=O)C(C)=C(O)C1` (configuration not stated), for which the GI50 was inactive: > 100 µM. For the compound `O=C1C[S+]([O-])c2ccccc2N1` (configuration not stated), the GI50 is inactive: > 100 µM. The value for `O=C(C#Cc1cn(C2CC(O)C(CO)O2)c(=O)[nH]c1=O)c1ccccc1` (configuration not stated) was inactive: > 100 µM; that for `COC(=O)c1c2c(cc3c1CCC3)CCC2` was inactive: > 100 µM; that for `Nc1ncnc2c1N=C(c1ccccc1)CC(c1ccccc1)N2` (configuration not stated) was inactive: > 100 µM.

For `OC(c1cccnc1Cl)c1nc2ccccc2c2ccnc(Cl)c12` (configuration not stated), the GI50 is inactive: 24.2 µM.

Consider `c1cc(-c2ccc(-c3ccsc3)s2)cs1`, for which the GI50 is inactive: > 100 µM. In the case of `CC(=O)OC[C@@]12Cc3ccc(C)c(O)c3[C@]1(C)[C@@H](OC(C)=O)[C@]1(O)[C@H]([C@@H](OC(=O)c3ccccc3)[C@@H](C)[C@H]1OC(C)=O)[C@H]2OC(C)=O` it was inactive: > 50 µM; in that of `CCCN(CCC)c1c([N+](=O)[O-])cc(C(N)=O)cc1[N+](=O)[O-]`, inactive: 60.3 µM; in that of `C[N+](C)(C)C1CC([N+](C)(C)C)C2c3ccccc3C21` (configuration not stated), inactive: > 100 µM.
